Data reported in the RNAGym collection of RNA variant scans (doi:10.7554/elife.90254).
The source gives no read counts; variants with many changes may rest on few reads.

B1: LINE1-mini (parent)
chain: GGCAGAGCUCAACACAGCGUGGCAAAGUGGCUGUGGCUAGACUGCC

Variants of: B1
Experiment: self-cleavage, relative activity (ratio to wild type); higher = more cleavage; in vitro, sequencing; the parent is a self-cleaving ribozyme
Variant G5U A26C U28A C46G has a self-cleavage of 0.01.
G5U C15A C18G A26C C45U showed a self-cleavage of 0.21.
In the case of G5C C10A G22U, the self-cleavage is reported as 0.01.
G5U A11G U20G C42A gave a self-cleavage of 0.
In the case of G5C A6C A14G C23U, the self-cleavage is reported as 0.09.
In the case of G5C C8G A24C, the self-cleavage is reported as 0.04.
In the case of G5C A24G C46G, the self-cleavage is reported as 0.03.
For G5U A6U G17C G21A C42U C45G, the self-cleavage was 0.02.
For G5U C10U G17C G19U, the self-cleavage was 0.04.
G5C C23U G36C C42U showed a self-cleavage of 0.07.
In the case of G5A U38A G40C C45A, the self-cleavage is reported as 0.02.
With G5A U20G G36U A41C the self-cleavage was 0.26.
For G5U C8U U28A, the self-cleavage was 0.13.
G5C C10G G27A G30U C42U G44U showed a self-cleavage of 0.
G5C C15A C23G G29A U34G gave a self-cleavage of 0.07.
Variant G5C G7A C23U A39G has a self-cleavage of 0.1.
With G5C C23A G33C the self-cleavage was 0.06.
Variant G5C G7U G36U has a self-cleavage of 0.26.
Work on G5C G7A A14C G35C yielded a self-cleavage of 0.02.
For G5U C10A A25G C37A, the self-cleavage was 0.03.
In the case of G5C G22A C42U, the self-cleavage is reported as 0.05.
With G5A U20C U28C C46U the self-cleavage was 0.05.
Work on G5U C15A G19U U32A yielded a self-cleavage of 0.05.
Variant G5C U28C G40C has a self-cleavage of 0.05.
In the case of G5U C15A G17A G30C U32A, the self-cleavage is reported as 0.02.
Variant G5U A26U G30C has a self-cleavage of 0.02.
With G5C G27U G36C A41C the self-cleavage was 0.04.
With G5U C10A A14U the self-cleavage was 0.03.
In the case of G5A U9G C10U A14G C31U, the self-cleavage is reported as 0.05.
For G5C C13U G27A U32G A39U, the self-cleavage was 0.02.
For G5C G7U C23U G40C, the self-cleavage was 0.41.
G5C G27U G30C G40A gave a self-cleavage of 0.11.
With G5U A14U G17A C18G C45G the self-cleavage was 0.04.
G5C A14U C15A G29U G36A gave a self-cleavage of 0.03.
With G5U A11G C15A C23A G33C the self-cleavage was 0.
G5C U20A A24G G35U U38C showed a self-cleavage of 0.
G5C U20C U38C G40A gave a self-cleavage of 0.04.
In the case of G5U A26U U32C, the self-cleavage is reported as 0.03.
Variant G5U A6G A14C G36C has a self-cleavage of 0.12.
G5U A6G A14C G17A gave a self-cleavage of 0.14.
Variant G5U C10U C23A U28G has a self-cleavage of 0.03.
In the case of G5U C8U A41C, the self-cleavage is reported as 0.25.
With G5C C10A G22U C31U the self-cleavage was 0.03.
With G5C C13A G35C the self-cleavage was 0.08.
G5C G22A G44A showed a self-cleavage of 0.06.
In the case of G5C A6G A25C C37U G40U, the self-cleavage is reported as 0.07.
Work on G5C A24U G27A yielded a self-cleavage of 0.06.
With G5U A24C G30U C42G the self-cleavage was 0.03.
In the case of G5U C8A U9A, the self-cleavage is reported as 0.47.
G5C A16G U43G showed a self-cleavage of 0.08.
G5U C10A G29A C45G gave a self-cleavage of 0.02.
Variant G5C A11G C13U C15A G36C U38C has a self-cleavage of 0.01.
With G5U C13U C42A the self-cleavage was 0.03.
In the case of G5U C8U C15A, the self-cleavage is reported as 0.26.
G5C C8U A12G C45A gave a self-cleavage of 0.06.
In the case of G5C C8G G19A U28A G30U, the self-cleavage is reported as 0.06.
In the case of G5C A11U A14G C15G G33U G40C, the self-cleavage is reported as 0.
With G5C C13A U43A C45U the self-cleavage was 0.02.
G5C U9C A41G showed a self-cleavage of 0.05.
In the case of G5U A16G C23G, the self-cleavage is reported as 0.01.
In the case of G5C C13A G19U U20C, the self-cleavage is reported as 0.07.
For G5C U9C C13G A16G G44A C45A, the self-cleavage was 0.01.
In the case of G5C A6C G21U, the self-cleavage is reported as 0.07.
G5U A6G G40U gave a self-cleavage of 0.12.
Work on G5C C15U G22C G35U C42G yielded a self-cleavage of 0.01.
In the case of G5C C10A G17U G19U C42U C45A, the self-cleavage is reported as 0.02.
Variant G5U A24G C37U has a self-cleavage of 0.06.
In the case of G5U A12U C46G, the self-cleavage is reported as 0.01.
Variant G5C C37A U38C C42U has a self-cleavage of 0.08.
G5U C8A G22C gave a self-cleavage of 0.09.
In the case of G5A U20G C45A, the self-cleavage is reported as 0.13.
G5U A41C G44U showed a self-cleavage of 0.04.
Variant G5C A6G G19A G30U C31U has a self-cleavage of 0.08.
G5C C8U G22C showed a self-cleavage of 0.04.
Variant G5U A16U G35C C45U has a self-cleavage of 0.04.
Variant G5A U20C C42A has a self-cleavage of 0.85.
With G5U A12G G19C C46A the self-cleavage was 0.01.
Work on G5C C10A C18U G40C yielded a self-cleavage of 0.02.
In the case of G5U A25C G36U A39G, the self-cleavage is reported as 0.01.
Work on G5C A12G A16U A24C U43C yielded a self-cleavage of 0.03.
With G5U A14U A16C the self-cleavage was 0.08.
For G5U A24C G27U, the self-cleavage was 0.01.
For G5C C18U G19C G22A C23G G44U, the self-cleavage was 0.02.
With G5U C10A C13G A16C C23A the self-cleavage was 0.05.
G5C G17A C18A C37G gave a self-cleavage of 0.05.
In the case of G5U C8A G29A U43C G44A, the self-cleavage is reported as 0.08.
For G5C C8A G29C, the self-cleavage was 0.09.
With G5C C18A C31A G36A the self-cleavage was 0.05.
G5U C10A G36C gave a self-cleavage of 0.
G5U C8U G40U gave a self-cleavage of 0.17.
Variant G5U A11C G36C has a self-cleavage of 0.02.
Work on G5U C13U C23G U38G yielded a self-cleavage of 0.02.
In the case of G5U C10A A14C C45U, the self-cleavage is reported as 0.02.
Work on G5U C8U U28G G30U C31U A39C yielded a self-cleavage of 0.05.
Work on G5U A6U U20G U34G yielded a self-cleavage of 0.
G5U A26G G29U gave a self-cleavage of 0.07.
Variant G5C A11C G29U has a self-cleavage of 0.05.
G5U A11C G19A showed a self-cleavage of 0.01.
Work on G5U C8U G29U G30C G36C yielded a self-cleavage of 0.11.
Work on G5U C15U G30A yielded a self-cleavage of 0.15.
In the case of G5C A11G G27C C37G G40U C45G, the self-cleavage is reported as 0.01.
In the case of G5C U32C C45A, the self-cleavage is reported as 0.09.
In the case of G5U A26U G30C G35C C45U, the self-cleavage is reported as 0.02.
For G5U C13U G40A, the self-cleavage was 0.03.
Work on G5C C10U A12U yielded a self-cleavage of 0.04.
Variant G5U A12C G17A has a self-cleavage of 0.01.
For G5U A14C G35U A39C, the self-cleavage was 0.14.
With G5U A11G C45G the self-cleavage was 0.03.
Variant G5U C8U C10U C15G C31A G36U U38G A39U has a self-cleavage of 0.02.
G5C C15A C23G C42G C46U showed a self-cleavage of 0.01.
For G5C A25G A39G G40C, the self-cleavage was 0.04.
With G5C A6G C23U the self-cleavage was 0.12.
Variant G5C C15U G30C C37A C42G has a self-cleavage of 0.
With G5U C13A G17A C31A U32G the self-cleavage was 0.03.
In the case of G5A U9G G22U G35A G36U A39U, the self-cleavage is reported as 0.04.
With G5U C10A C18G G22C G44U the self-cleavage was 0.03.
Work on G5C G40U C45A yielded a self-cleavage of 0.04.
Variant G5C A16G G22A has a self-cleavage of 0.04.
Work on G5U A26G U43C C46U yielded a self-cleavage of 0.02.
G5C C8G A11U G29C gave a self-cleavage of 0.01.
Work on G5U C8G A41U yielded a self-cleavage of 0.04.
Work on G5C C8A C10A C15A G27C G30A G33A yielded a self-cleavage of 0.03.
In the case of G5C G22U C31A U32G, the self-cleavage is reported as 0.25.
G5U C10U C23U A25G G35A gave a self-cleavage of 0.02.
Work on G5C A16U A26C yielded a self-cleavage of 0.05.
G5C C23G U34A showed a self-cleavage of 0.04.
With G5C U9G G33C the self-cleavage was 0.02.
In the case of G5U C13U G30U C31G G44A, the self-cleavage is reported as 0.01.
Work on G5C A24C A26G yielded a self-cleavage of 0.
Work on G5C A12U G27U G30U yielded a self-cleavage of 0.09.
G5C A6U G22A G27U G29C U34G showed a self-cleavage of 0.01.
For G5C C18U C23U A41U C46G, the self-cleavage was 0.04.
G5A U20C G21U G33A C46G gave a self-cleavage of 0.07.
Variant G5U C8A G21U has a self-cleavage of 0.6.
For G5C G30U G33A G40U A41G, the self-cleavage was 0.02.
With G5U A16U U38A A39G the self-cleavage was 0.03.
G5C G17A G21A G22C A41G C46A showed a self-cleavage of 0.08.
With G5C C15A A24U G36A the self-cleavage was 0.03.
In the case of G5C G17U G40A, the self-cleavage is reported as 0.03.
With G5C U9A C46G the self-cleavage was 0.02.
With G5A U9G A12U C37U A39U C46G the self-cleavage was 0.02.
In the case of G5A U28G G40C, the self-cleavage is reported as 0.08.
G5C U9A A26G U32C showed a self-cleavage of 0.03.
In the case of G5C C8U C42G, the self-cleavage is reported as 0.23.
For G5U A24G G29U, the self-cleavage was 0.12.
Variant G5U A14C C31G has a self-cleavage of 0.03.
In the case of G5U A24U G35U, the self-cleavage is reported as 0.12.
Work on G5C U9A G19U C46G yielded a self-cleavage of 0.52.
G5U A12U A14G U34G C42G gave a self-cleavage of 0.01.
For G5C U9A C15A, the self-cleavage was 0.02.
With G5C C13U G27C A41G the self-cleavage was 0.03.
In the case of G5U C10U C45U, the self-cleavage is reported as 0.12.
For G5U A26C C31A G40C, the self-cleavage was 0.02.
With G5C U20G U32A the self-cleavage was 0.09.
Work on G5C A12U G17U G40A yielded a self-cleavage of 0.06.
Work on G5U C10U C13A G22A C31G A41U yielded a self-cleavage of 0.04.
For G5U A12U G40C, the self-cleavage was 0.02.
For G5C C23A C46G, the self-cleavage was 0.04.
With G5C G27C G29U U32G the self-cleavage was 0.08.
Work on G5U C8A G35U yielded a self-cleavage of 0.4.
In the case of G5C C15A U32C G35A G36C C42A, the self-cleavage is reported as 0.01.
G5C C10A A25C G27U showed a self-cleavage of 0.02.
G5C C31A G40A showed a self-cleavage of 0.03.
With G5C A12U C15A C42U the self-cleavage was 0.02.
Work on G5C C8G A11G G22U C42A yielded a self-cleavage of 0.04.
In the case of G5U A41G C42A, the self-cleavage is reported as 0.14.
For G5U A41G C42U, the self-cleavage was 0.03.
